# According to PubChem BioAssay AID1159614 (National Center for Advancing Translational Sciences (NCATS), 2016):
# The campaign covered roughly 45,000 compounds. About 65 (0.1%) were called active. Calls come from the whole dose curve; as a rule, active = well fitted activation curve with a large enough effect; inconclusive = small, poorly fitted or top-dose-only effect; inactive = no such curve, though single readings can be large or run the other way. This is one part of the list.
# Biological target: Galactocerebrosidase (Homo sapiens) (UniProt P54803)
# Test: A Novel Cell-Based Assay to Identify Small Molecules for B -Galactocerebrosidase; note: 0% is about no effect; nearly all actives have a fitted effect of over 65% in size
# Details: 145M-Twi-hGALC-G270D cells (Twitcher mouse brain line with human GALC G270D), HMU-beta-Gal fluorescence, 48 h; series mostly up to 57.5 µM; activation: at the top concentration
# Summary of the method: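 Live 145M-Twi cells (Twitcher mouse brain-derived, GALC-null) stably expressing human GALC-G270D, with a wild-type GALC line, were compound-treated. Residual GALC activity was then read as fluorescence from 0.1 mM final HMU-β-gal at pH 5.2; higher signal means activation.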
# UniProt P54803, sequence (P54803 whole entry, looked up): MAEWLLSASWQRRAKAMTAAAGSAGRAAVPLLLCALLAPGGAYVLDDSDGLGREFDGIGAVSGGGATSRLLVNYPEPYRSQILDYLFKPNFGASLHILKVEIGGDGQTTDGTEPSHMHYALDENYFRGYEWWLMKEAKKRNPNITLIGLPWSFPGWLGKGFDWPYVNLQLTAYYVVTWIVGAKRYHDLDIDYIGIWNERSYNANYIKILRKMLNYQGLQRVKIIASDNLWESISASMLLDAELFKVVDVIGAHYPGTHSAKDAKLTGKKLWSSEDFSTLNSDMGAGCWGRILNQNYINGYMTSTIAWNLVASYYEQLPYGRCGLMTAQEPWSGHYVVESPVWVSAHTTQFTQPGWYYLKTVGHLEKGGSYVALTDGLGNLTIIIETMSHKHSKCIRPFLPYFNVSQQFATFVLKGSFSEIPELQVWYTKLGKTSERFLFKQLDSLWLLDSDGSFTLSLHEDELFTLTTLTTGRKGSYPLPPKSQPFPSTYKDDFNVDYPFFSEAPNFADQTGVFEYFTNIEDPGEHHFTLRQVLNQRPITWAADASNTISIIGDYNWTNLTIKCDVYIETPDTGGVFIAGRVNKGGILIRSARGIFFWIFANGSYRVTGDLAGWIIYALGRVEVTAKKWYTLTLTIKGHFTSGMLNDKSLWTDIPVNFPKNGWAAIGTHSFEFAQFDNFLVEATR
row,SMILES,activation
1,O=C(Nc1nc(-c2ccc(Br)cc2)ns1)c1ccccc1F,inactive: -4.04%
2,CCCc1nn2c(C)c(-c3ccccc3)nc2s1,inactive: -1.84%
3,CS(=O)(=O)c1ccc([C@@H](O)[C@@H](CO)NC(=O)C(Cl)Cl)cc1,inactive: -14%
4,COC(=O)CSc1nnc2n(-c3ccccc3)c(=O)c3c4c(sc3n12)COC(C(C)C)C4 (stereo not given),inactive: 4.33%
5,CCC(=O)N1CCc2cc(S(=O)(=O)N(C)c3cccc(C)c3)ccc21,inactive: -15.4%
6,CCOc1ccccc1N(C)C(=O)Cn1nc(Cc2cccnc2)c2ccccc2c1=O,inactive: -14.4%
7,CCOc1ccccc1N1CC(c2nc3ccccc3n2CCOc2ccc(C(C)(C)C)cc2)CC1=O (stereo not given),inactive: -11.9%
8,CCN(c1cc(C)cc(C)c1)S(=O)(=O)c1nnc(NC(=O)c2cccc(F)c2)s1,inactive: -14.7%
9,Cc1ccccc1NC(=O)c1sc2nc(N3CCOCC3)c3c(c2c1N)CC(C)(C)OC3,inactive: -18.1%
10,Cc1ccc(NC(=O)/C(C#N)=C\c2ccc(Cl)cc2Cl)cc1C,inactive: 1.47%
11,COc1ccc2c(c1)c1c(c(=O)n(CCc3ccccc3)c(=O)n1Cc1ccc(Cl)cc1)n2C,inactive: -3.24%
12,COc1cc(NC(=O)N2CCN(c3cc(-c4noc(C)n4)ccc3C)CC2)cc(OC)c1OC,inactive: -18.9%
13,CCN(CC)CCNC(=O)c1cc2c(=O)[nH]c3ccc(C)cc3c2s1,inactive: 4.91%
14,CC(C)c1ccccc1NC(=O)CSc1nnc(COc2ccccc2Cl)o1,inactive: -20.5%
15,CCN(c1ccc(C)cc1)S(=O)(=O)c1nnc(NC(=O)c2cccs2)s1,inactive: -16.5%
16,CCOc1ccccc1NC(=O)N1CCN(S(=O)(=O)c2ccc3c(ccn3C)c2)CC1,inactive: -1.01%
17,COc1ccccc1CNC(=O)Cn1ncc2c(C)n(Cc3ccccc3Cl)c(C)c2c1=O,inactive: -2.52%
18,Nc1c(-c2nc(-c3ccccc3)no2)nnn1CC(=O)Nc1ccccc1,inactive: -15.1%
19,Cc1ccc(-c2ccc(CCC(=O)O)n2-c2ccc(C(C)C)cc2)cc1,inactive: -7.58%
20,O=C(NCC(c1ccc2c(c1)OCO2)N1CCN(c2ccccc2)CC1)C(=O)Nc1cccc(F)c1 (stereo not given),inactive: -11.3%
21,Cc1ccc(CSC2=Nc3ccccc3C3=NC(CCC(=O)NCc4cccs4)C(=O)N23)cc1 (stereo not given),inactive: -19.7%
22,CCN(CCCNC(=O)c1ccc(Sc2ccc(F)cc2)c(NC(C)=O)c1)c1ccccc1,inactive: -5.62%
23,COc1ccc(CNC(=O)Cn2c(=O)nc(-c3ccccc3F)c3cc(Cl)ccc32)cc1,inactive: -8.14%
24,CCN(CC)C(=O)CSc1nc2cc3c(cc2c(=O)n1CCCCCC(=O)NCc1ccc(OC)cc1)OCO3,inactive: -6.52%

row,SMILES,activation
1,O=C(NCc1ccc2c(c1)OCO2)c1ccc2c(c1)N(Cc1cccc(Cl)c1)C(=O)c1ccccc1S2=O (stereo not given),inactive: -16.7%
2,Cc1c(Cl)cccc1NC(=O)C1CCCN(c2nnc(-n3c(C)ccc3C)s2)C1 (stereo not given),inactive: -6.49%
3,CC1CCCN(c2nc3c(S(=O)(=O)c4ccc(C(C)C)cc4)nnn3c3ccsc23)C1 (stereo not given),inactive: -5.13%
4,COc1ccc(C2=C(C)C(=O)N(Cc3ccc(C(=O)Nc4cccc(F)c4)cc3)S2(=O)=O)cc1,inactive: -6.84%
5,Cc1ccc(-c2nc3c(C)cccn3c2Nc2ccccc2C)s1,inactive: -10.3%
6,Cc1ccc(F)cc1NC(=O)Cn1c(=O)nc(-c2ccccc2F)c2cc(Cl)ccc21,inactive: -17.2%
7,CCCC1=Nc2cc(C(=O)NCCc3ccc(OCC)cc3)ccc2Sc2ccccc21,inactive: -13%
8,COc1ccc(-c2csc(-c3nc(-c4ccc(Br)s4)cs3)n2)cc1F,inactive: -11.6%
9,COc1ccccc1C(=O)NCc1nnnn1-c1ccc(C)c(C)c1,inactive: -2.83%
10,CCC1CCCCN1CCCNC(=O)c1c(O)nc2ccccn2c1=O (stereo not given),inactive: -8.21%
11,COc1cccc(CN2C(=O)c3ccccc3Sc3ccc(C(=O)NCCc4ccc(C)cc4)cc32)c1,inactive: -8%
12,CCCCCCCC/C=C\CCCCCCCC(=O)NCc1ccc(O)c(OC)c1,inactive: -10%
13,N#Cc1ccccc1NC(=O)CSc1ncn[nH]1,inactive: -8.36%
14,Cc1cccc(NC(=O)Cn2cc(C(=O)C3CCCCC3)c3ccccc32)c1C,inactive: -64.3%
15,COc1ccccc1C(=O)N1CCCCC1CCN1CCOCC1 (stereo not given),inactive: -11.3%
16,O=C(Nc1ccc(-c2nc3cc(NC(=O)c4ccccc4F)ccc3o2)cc1)c1ccccc1F,inactive: -10.5%
17,CN1C(=O)Cc2cc(S(=O)(=O)N3CCN(c4cccc(C(F)(F)F)c4)CC3)ccc21,inactive: -23.1%
18,Cc1ccc(C)c(NC(=O)c2nc(S(C)(=O)=O)ncc2N(Cc2ccc(C(C)(C)C)cc2)Cc2ccco2)c1,inactive: -2.04%
19,CCOc1ccc(C(=O)CSc2nc3cc(C(=O)NC4CCCC4)ccc3c(=O)n2CC2CCCO2)cc1 (stereo not given),inactive: -8.37%
20,CC(=O)c1ccc(NC(=O)c2ccc3c(c2)nnn3C2CCCC2)cc1,inactive: -18%
21,Cc1cccc(C(=O)Nc2ccc(C(=O)OCc3cc(=O)n4c5c(sc4n3)CCCC5)cc2)c1,inactive: -1.82%
22,Cc1ccc(CNC(=O)C(=O)NCC(c2cccnc2)N2CCN(c3ccc(F)cc3)CC2)cc1 (stereo not given),inactive: -11.4%
23,O=C(NCc1ccccc1)c1cc2sccc2n1Cc1ccc(F)cc1,inactive: -36.9%
24,CCOc1ccc(C(=O)c2cn(CC(=O)Nc3ccc4c(c3)OCCO4)c3ccc(OC)cc3c2=O)cc1,inactive: -5.68%

row,SMILES,activation
1,CCCc1nn2c(=O)cc(COC(=O)c3cccs3)nc2s1,inactive: -5.84%
2,COc1ccccc1NC(=O)c1sc2nc(C)c(C(=O)Nc3ccc(C)cc3C)c(-c3ccc(Br)cc3)c2c1N,inactive: -13.1%
3,Cc1ccccc1CNC(=O)Cn1ccc2cc(S(=O)(=O)N3CCCCC3)ccc21,inactive: 2.36%
4,Cn1c(=O)c2c(nc(Oc3ccc(F)cc3)n2Cc2ccc(F)cc2)n(C)c1=O,inactive: -24.2%
5,Cc1ccc(C(=O)OCc2cc(=O)n3nc(-c4cccs4)sc3n2)cc1,inactive: -16.3%
6,Cc1ccccc1C(=O)OCc1cc(=O)n2nc(C3CC3)sc2n1,inactive: 2.51%
7,CCOC(=O)c1c(S(=O)(=O)NCC(=O)Nc2cc(C)ccc2OC)c(C)n(C)c1C,inactive: -20.8%
8,COc1ccc(NC(=O)CSc2nc3ccccc3nc2Cc2ccc(C)cc2)cc1Cl,inactive: 3.16%
9,CCOc1ccc(CCn2c3c(c(=O)[nH]c2=O)C(NC(=O)c2ccccc2)(C(F)(F)F)C(=O)N3)cc1OCC (stereo not given),inactive: -18.6%
10,CCCCCn1c(=O)[nH]c2cc(C(=O)N3CCN(c4cc(Cl)ccc4C)CC3)ccc2c1=O,inactive: -11.1%
11,CCOC(=O)N1CCC(NC(=O)c2ccc3c(c2)N(Cc2cc(C)ccc2C)C(=O)c2ccccc2S3(=O)=O)CC1,inactive: -15.9%
12,Cc1nc(-c2ccccc2)sc1-c1ccc(SCC(=O)NCc2ccccc2)nn1,inactive: -14.1%
13,CCOC(=O)c1ccc(Nc2nc3nonc3nc2Nc2cccc(C)c2C)cc1,inactive: -14.8%
14,O=C(Cn1cc(SCc2ccccc2F)c2ccccc21)N1CCCCCC1,inactive: -14.4%
15,CCN(CC)c1ccc2cc(-c3nc(-c4ccc(Cl)cc4Cl)cs3)c(=O)oc2c1,inactive: -18.4%
16,CCOC(=O)CSC1=Nc2ccccc2C2=NC(CCC(=O)NCc3ccc(OC)cc3)C(=O)N12 (stereo not given),inactive: -20.2%
17,Oc1c(C(c2ccccc2F)N2CCN(c3ccccc3F)CC2)sc2nc(-c3ccco3)nn12 (stereo not given),inactive: -2.06%
18,Cc1ccccc1N1CCN(S(=O)(=O)c2ccccc2)CC1,inactive: -14.3%
19,Cc1ccc(-c2nc(SCC(=O)NCC3CCCO3)c3c(=O)n(C)c(=O)n(C)c3n2)cc1 (stereo not given),inactive: -8.97%
20,Cc1cc(OCCn2c(CCNC(=O)C3CCCCC3)nc3ccccc32)ccc1Cl,inactive: -17.9%
21,COc1ccc(CNC(=O)CCC2N=C3c4ccccc4N=C(SCc4ccccc4F)N3C2=O)cc1 (stereo not given),inactive: -16.2%
22,Cc1cc(C)c(NC(=O)CSc2nccn2-c2cccc(Cl)c2)c(C)c1,inactive: -15.3%
23,COc1ccc(C)cc1NS(=O)(=O)c1ccc2c3c(cccc13)C(=O)N2,inactive: -3.91%
24,COc1ccccc1Cn1ccn(Cc2ccc(C)cc2)c(=O)c1=O,inactive: -3.62%

row,SMILES,activation
1,Cc1ccccc1OCc1nc2c3cnn(-c4ccccc4F)c3ncn2n1,inactive: -6.17%
2,COCCNC(=O)CSc1nc2cc3c(cc2c(=O)n1CCCC(=O)NCc1ccc2c(c1)OCO2)OCO3,inactive: -1.61%
3,O=C(NC1CCCC1)c1ccc2c(=O)n(Cc3ccccc3)c(SCc3cccc([N+](=O)[O-])c3)nc2c1,inactive: 6.78%
4,Cc1ccccc1NC(=O)CSc1nc(-c2ccccc2)cn1-c1ccccc1F,inactive: -17.8%
5,COc1cccc(-n2c(-c3ccccc3F)nc3c(cnn3-c3ccc(C)cc3)c2=O)c1,inactive: -5.72%
6,CCOC(=O)C(Cc1ccccc1)NC(=O)CCc1c(C)nc2nc(C)nn2c1C (stereo not given),inactive: -0.411%
7,COc1ccc(NC(=O)c2sc3nc4c(cc3c2N)CCCCCC4)cc1,inactive: -17.7%
8,Cc1ccc(Cl)cc1N1CCN(C(=O)Cn2c(-c3cccs3)cc3cc(F)ccc32)CC1,inactive: 0.971%
9,CCOC(=O)Cn1c(=O)cc(C(F)(F)C(F)(F)F)c2c(C)nn(CC)c21,inactive: -9.7%
10,CCc1ccc(OCC(=O)Nc2cc(-c3ccc(C)cc3)no2)cc1,inactive: -9.82%
11,COc1ccc(CNC(=O)CSc2ncc3c(n2)-c2cc(Cl)ccc2N(Cc2ccccc2)S3(=O)=O)cc1,inactive: -7.9%
12,Cc1ccc(OCC(=O)Nc2ccc3nc(SCC(=O)Nc4ccc(C)cc4C)sc3c2)cc1,inactive: -19.1%
13,CC(C)(C)c1ccc(C(=O)NC2(C(F)(F)F)NC(=O)N(CCc3ccccc3)C2=O)cc1 (stereo not given),inactive: -1.69%
14,CCCNC(=O)c1ccccc1NC(=O)c1nsc2ccccc12,inactive: -5.19%
15,COc1cccc(NC(=O)CSc2ncc3c(n2)-c2ccc(Cl)cc2N(C)S3(=O)=O)c1,inactive: -2.92%
16,COC(=O)c1sccc1S(=O)(=O)N1CCN(c2ccc(C)cc2C)CC1,inactive: -12.1%
17,Cc1c(Cl)cccc1NC(=O)N1CCOc2ccccc21,inactive: -20.9%
18,CCOc1ccc(CNC(=O)C2CCN(C(=O)N3CC(CC)Oc4ccccc43)CC2)cc1 (stereo not given),inactive: 2.95%
19,CCOc1ccccc1NC(=O)C(=O)NCCc1sc2nc(-c3ccc(OC)cc3)nn2c1C,inactive: -12.3%
20,CCOc1ccc(CNC(=O)c2ccccc2NC(=O)c2nsc3ccccc23)cc1,inactive: -23.9%
21,Cc1ccc(NC(=O)NCCOCCn2c(=O)oc3ccccc32)cc1C,inactive: -13.4%
22,Cc1c(-c2ccc(Cl)cc2)c(=O)oc2c(CN3CCN(CCO)CC3)c(O)ccc12,inactive: -2.94%
23,CCOc1ccc(CCNC(=O)c2cc3c(=O)n(C)c4ccccc4c3n2C)cc1OCC,inactive: -4.66%
